Measurements from the supplement of paper PMC10126150.
Values marked as one replicate rest on one cluster of the flow cell; about a third of the high ones do not repeat.
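Further: ATP exposure 15 min at 22 °C before imaging.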

These sequences were tested on ATP (assay: switch fluorescence ratio, 500 uM ATP over buffer (Cy3 cluster intensity, sum of 5 cycles each) (fold (ratio)); higher = stronger signal-on switching upon ATP binding; sequences stand for … in TCGTCGGCAGCGTCAGATGTGTATAAGAGACAGTTTTTTTTTTTTTTTTTTTTTTTTT…TC). Details: aptamer strand: ATP DNA aptamer (quencher-CACCTGGGGGAGTATTGCGGAGGAAGG + anchor), 100 nM annealed; ATP concentration: 500 uM; one replicate.
How it was run: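 Imaging in selection buffer was followed by imaging after 15 min with 500 uM ATP at 22 °C, for Cy3-labelled switching-strand clusters annealed to 100 nM quencher-labelled ATP aptamer on a modified Illumina MiSeq flow-cell. Five of these buffer/ATP cycles ran, separated by NaOH stripping and re-annealing. The fluorescence ratio per cluster is summed target-cycle over summed buffer-cycle Cy3 intensity, averaged per switch-domain sequence; clusters outside 100-1000 RFU were removed.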
TCTCGGTGGG gave a switch fluorescence ratio of 0.976.
With TCTCTGGTCA the switch fluorescence ratio was 1.01.
Sequence TCTCTTAAAC has a switch fluorescence ratio of 1.01.
Sequence TCTCTTCTTG has a switch fluorescence ratio of 1.02.
TCTGACAGGA showed a switch fluorescence ratio of 1.01.
In the case of TCTGAGGTC, the switch fluorescence ratio is reported as 1.01.
Work on TCTGAGTAAG yielded a switch fluorescence ratio of 0.973.
TCTGATGCCT showed a switch fluorescence ratio of 1.09.
TCTGCGCTTA showed a switch fluorescence ratio of 1.47.
TCTGCTCCCT was tested, and the switch fluorescence ratio was 1.11.
TCTGGAAGA gave a switch fluorescence ratio of 0.936.
TCTGGACACT gave a switch fluorescence ratio of 1.
For TCTGGACAGC, the switch fluorescence ratio was 0.979.
TCTGGACGAT was tested, and the switch fluorescence ratio was 1.03.
TCTGGATTCT was tested, and the switch fluorescence ratio was 1.01.
With TCTGGCGATG the switch fluorescence ratio was 0.976.
TCTGGCGTCC was tested, and the switch fluorescence ratio was 1.02.
Work on TCTGGGAGTT yielded a switch fluorescence ratio of 1.01.
For TCTGGGATAG, the switch fluorescence ratio was 1.17.
For TCTGGTATG, the switch fluorescence ratio was 0.971.
TCTGGTTGTT gave a switch fluorescence ratio of 1.01.
TCTGTATTTA showed a switch fluorescence ratio of 0.978.
With TCTGTGCCTC the switch fluorescence ratio was 1.06.
Work on TCTGTGCGAT yielded a switch fluorescence ratio of 1.5.
Sequence TCTGTGTGAC has a switch fluorescence ratio of 0.995.
TCTGTGTGGA showed a switch fluorescence ratio of 1.02.
Work on TCTGTTACGA yielded a switch fluorescence ratio of 1.04.
Sequence TCTGTTCCGA has a switch fluorescence ratio of 1.11.
Sequence TCTGTTCTTT has a switch fluorescence ratio of 1.05.
Sequence TCTGTTTAAG has a switch fluorescence ratio of 0.94.
TCTTAAAGTA was tested, and the switch fluorescence ratio was 1.03.
For TCTTAAGCCA, the switch fluorescence ratio was 1.05.
TCTTACCCTG gave a switch fluorescence ratio of 0.971.
In the case of TCTTAGTCAT, the switch fluorescence ratio is reported as 0.999.
TCTTCGAAGA was tested, and the switch fluorescence ratio was 0.984.
Sequence TCTTCGAGAT has a switch fluorescence ratio of 1.1.
In the case of TCTTCTGAGT, the switch fluorescence ratio is reported as 0.976.
For TCTTGAAGGA, the switch fluorescence ratio was 1.02.
TCTTGAGAGG was tested, and the switch fluorescence ratio was 0.986.
Work on TCTTGAGGAC yielded a switch fluorescence ratio of 1.01.
Sequence TCTTGATAAT has a switch fluorescence ratio of 0.99.
With TCTTGCGCTA the switch fluorescence ratio was 1.31.
Sequence TCTTGCTAGC has a switch fluorescence ratio of 0.989.
With TCTTGCTGAC the switch fluorescence ratio was 1.05.
Work on TCTTGGAGTC yielded a switch fluorescence ratio of 1.01.
Sequence TCTTGGATTG has a switch fluorescence ratio of 1.02.
Sequence TCTTGGCTCC has a switch fluorescence ratio of 1.06.
TCTTGGGAA was tested, and the switch fluorescence ratio was 1.03.
TCTTGGGCGC was tested, and the switch fluorescence ratio was 1.01.
With TCTTGTATTT the switch fluorescence ratio was 1.02.
TCTTGTTTT gave a switch fluorescence ratio of 1.01.
In the case of TCTTTAGTGC, the switch fluorescence ratio is reported as 1.06.
In the case of TCTTTATAA, the switch fluorescence ratio is reported as 0.988.
TCTTTATTCA showed a switch fluorescence ratio of 1.03.
With TCTTTCAATA the switch fluorescence ratio was 2.28.
TCTTTCATTT showed a switch fluorescence ratio of 1.5.
In the case of TCTTTCGGGT, the switch fluorescence ratio is reported as 1.01.
Work on TCTTTCGTGG yielded a switch fluorescence ratio of 1.01.
TCTTTGTCGT gave a switch fluorescence ratio of 0.974.
TCTTTTAAC gave a switch fluorescence ratio of 0.999.
In the case of TCTTTTAGTG, the switch fluorescence ratio is reported as 0.986.
TCTTTTAT gave a switch fluorescence ratio of 1.03.
Work on TCTTTTCAGG yielded a switch fluorescence ratio of 0.969.
Work on TCTTTTTCT yielded a switch fluorescence ratio of 1.13.
In the case of TGAAAACAGC, the switch fluorescence ratio is reported as 0.97.
For TGAAAACCGG, the switch fluorescence ratio was 1.
With TGAAAATTGT the switch fluorescence ratio was 0.944.
TGAAACCGTG showed a switch fluorescence ratio of 1.09.
TGAAACCTGT was tested, and the switch fluorescence ratio was 1.03.
Work on TGAAACTCGC yielded a switch fluorescence ratio of 1.04.
TGAAACTTTT showed a switch fluorescence ratio of 1.
For TGAAAGCTCA, the switch fluorescence ratio was 0.995.
TGAAAGTAGT was tested, and the switch fluorescence ratio was 0.99.
Work on TGAAATCGAG yielded a switch fluorescence ratio of 2.99.
Sequence TGAAATTGGT has a switch fluorescence ratio of 0.947.
TGAACTATCA gave a switch fluorescence ratio of 0.991.
